Source: PubChem BioAssay AID463173 (ICCB-Longwood Screening Facility, Harvard Medical School, 2010)
Among all 52,000 compounds or so, about 4,300 (8.3%) were called active. Cut-off read from the data, not from the text of the source: active = survival mostly below about 52% (no sharp cut-off); inactive = mostly above about 56%. Some of the results follow.

tested on: DeltatarO mutant; experiment: growth inhibition of S. aureus wild type versus tarO mutant, primary screen, teichoic acid synthesis inhibitors, RN4220, OD600 (AID 463173); details: OD600, 18 h, hits give low values, screened at 18.75 µg/mL (by protocol)

SMILES	survival
Cc1cc(C)nc(-n2nc(C)c3c2NC(=O)CC3c2ccccc2OC(C)C)n1 (configuration not stated)	inactive: 76%
O=C(CSc1nc2c(c(=O)[nH]1)CN(Cc1ccc(F)cc1)CC2)Nc1cccc(C(F)(F)F)c1	inactive: 68%
Cc1ccccc1NC(=O)Cn1c(=O)n(CCCCC(=O)NCc2ccccc2Cl)c(=O)c2ccccc21	inactive: 92%
O=C(CN1C(=O)COc2ccc(S(=O)(=O)Nc3ccccc3)cc21)NCc1ccccc1Cl	inactive: 102%
CCN(CC)S(=O)(=O)c1ccc(C(=O)NC2CC(=O)N(c3ccc4c(c3)OCCO4)C2)cc1 (configuration not stated)	inactive: 80%
Cc1c(C(=O)OC2CCCCCC2)[nH]c2c1C(=O)CC(c1ccccc1Cl)C2 (configuration not stated)	inactive: 86%
CCOC(=O)c1c(S(=O)(=O)N2CCC(C(=O)Nc3cccc(C#N)c3)CC2)c(C)n(C)c1C	inactive: 115%
CCOc1ccc(OCC)c(NC(=O)CN(c2ccc(C)cc2)S(=O)(=O)c2c(C)n[nH]c2C)c1	active: 32%
CCOc1ccc(NC(=O)C(CC)n2nc(-c3ccc(C)c(C)c3)ccc2=O)cc1 (configuration not stated)	inactive: 68%
COc1ccccc1N1CCN(C(c2ccccc2)c2nnc(-c3ccccc3Cl)o2)CC1 (configuration not stated)	active: 32%
N#CC1C(C#N)N2CCCN2C1c1ccc(Cl)cc1 (configuration not stated)	inactive: 105%
Cc1ccc(NC(=O)Cn2c(=O)n(Cc3nc(-c4ccccc4)no3)c(=O)c3cc4c(cc32)OCO4)cc1C	inactive: 77%
Cc1ccc(C)c(NC(=O)C2CCCN(S(=O)(=O)c3cccc4nsnc34)C2)c1 (configuration not stated)	inactive: 87%
CCC1CCCCN1C(=O)Cn1c(=O)n(-c2ccccc2C(F)(F)F)c(=O)c2c(C)c(C(=O)N(C)C)sc21 (configuration not stated)	inactive: 80%
CCOC(=O)c1sc(N2C(=O)c3oc4ccc(F)cc4c(=O)c3C2c2cccc(OC)c2)nc1C (configuration not stated)	inactive: 75%
Cc1cc(N2CCCCC2)nc2ccc(NC(=O)CCC(=O)N3CCN(c4cccc(Cl)c4)CC3)cc12	inactive: 55%
CCN(C(=O)Cn1c(SCc2ccccc2F)nc2cccnc21)c1ccccc1	inactive: 99%
N/C(=N\c1nc2c(c(=O)[nH]1)CCC2)Nc1cccc(Cl)c1	inactive: 91%
O=C(C1COc2ccccc2O1)N(Cc1cccnc1)c1nc2ccc(F)cc2s1 (configuration not stated)	inactive: 96%
O=C(OCc1ccccc1)c1ccc(-c2nnn(Cc3ccccc3F)n2)cc1	inactive: 98%
O=C(CSCc1nc2cccnc2n1C1CCCCC1)NCc1cccc(Br)c1	inactive: 105%
CCOc1ccc(CCNC(=O)c2ccc3[nH]c(C)c(C)c3c2)cc1	inactive: 100%

SMILES	survival
Cc1ccc2scc(N3CCN(c4ccccc4)CC3)c(=O)c2c1	inactive: 80%
O=C(c1ccc2c(c1)N(Cc1ccccc1F)C(=O)c1ccccc1S2(=O)=O)N1CCCCCC1	inactive: 73%
CCCNC(=O)c1cc2n(n1)CCCN(Cc1ccc(F)cc1)C2=O	inactive: 94%
COc1cccc(C(=O)c2sc(Nc3ccc(C)cc3C)c(S(=O)(=O)c3ccccc3)c2N)c1	inactive: 65%
COc1ccc(-c2csc3ncnc(Nc4ccc(OC)c(OC)c4)c23)cc1	inactive: 98%
Cc1cc(OCCn2cc(C(=O)c3cccs3)c3ccccc32)ccc1Cl	inactive: 124%
Cc1c(C(=O)OCCOc2ccccc2)[nH]c2c1C(=O)CC(c1ccccc1)C2 (configuration not stated)	inactive: 74%
O=C(Nc1ccc2nc(SCC(=O)N3CCOCC3)sc2c1)c1cccc(Cl)c1	active: 32%
COc1cccc(CNC(=O)C(=O)NCC(c2ccco2)S(=O)(=O)c2cccs2)c1 (configuration not stated)	inactive: 94%
CCOc1ccccc1CNC(=O)C1CCN(C(=O)N2CC(CC)Oc3ccc(C)cc32)CC1 (configuration not stated)	inactive: 71%
CC(=O)N1CCc2cc(CNC(=O)Cc3ccc(F)cc3)ccc21	inactive: 94%
O=C(/C=C/c1ccccc1)N1CCN(Cc2cc(=O)n3nc(-c4ccccc4F)sc3n2)CC1	inactive: 73%
CC(C)(C)C(=O)Cn1c(=O)n(-c2ccc(Cl)cc2)c(=O)c2c3c(sc21)CCCC3	inactive: 103%
COc1ccc(N2CC(NC(=O)/C=C\c3ccccc3)CC2=O)cc1 (configuration not stated)	inactive: 92%
O=C(Cn1c(SCCOc2ccccc2)nc2ccccc21)N1CCOCC1	inactive: 47%
COc1ccc(CCNC(=O)CCn2c(=O)c3ccccc3n(Cc3cc(C)ccc3C)c2=O)cc1OC	inactive: 84%
COc1ccc(NC(=O)Cn2c(=O)n(CCC(=O)NCc3ccccc3OC)c(=O)c3ccccc32)cc1Cl	inactive: 87%
Cc1ccc(Cn2ccn(Cc3ccccc3F)c(=O)c2=O)cc1	inactive: 105%
COc1ccc(Cl)cc1N(C)C(=O)c1ccc2c(=O)n3c(nc2c1)CCCCC3	inactive: 76%
Cc1c(Cl)cccc1NC(=O)COCc1cc(-c2ccc3c(c2)OCO3)on1	inactive: 102%
COc1cccc(CNC(=O)CCc2c(C)nc3c(c(C)nn3-c3ccc(C)c(C)c3)c2C)c1	inactive: 67%
Cc1nc2c(-c3ccccc3)c(C)nn2c(C)c1CCC(=O)N1CCN(c2ccc(F)cc2)CC1	inactive: 96%

SMILES	survival
Cc1cccc(N2CCN(CCCNc3ncnc4onc(-c5ccc(Cl)cc5)c34)CC2C)c1 (configuration not stated)	inactive: 93%
CSc1ccc(CCNC(=O)c2ccc(-c3nc(COc4ccccc4)c(C)o3)cc2)cc1	inactive: 91%
CCCc1cc(=O)[nH]c2nnc(SC(C)CC)n12 (configuration not stated)	inactive: 85%
CCOC(=O)c1sc(NC(=O)/C=C/c2ccc(C(C)C)cc2)c(C(=O)OCC)c1C	inactive: 52%
CCc1cccc(C)c1NS(=O)(=O)c1cc2[nH]c(=O)c(=O)[nH]c2cc1C	inactive: 80%
Cc1ccc2nc(N3CCN(c4cccc(C(F)(F)F)c4)CC3)c3nnnn3c2c1	inactive: 94%
O=c1cc(C(F)(F)F)nc2cc(-c3ccccc3)[nH]n12	inactive: 102%
CCN(CC)c1ccc(NC(=O)CCS(=O)(=O)c2cc3c(cc2Cl)NC(=O)CO3)c(C)c1	inactive: 86%
CCN1CCOC(=O)C1CC(=O)Nc1cc(C)ccc1OC (configuration not stated)	inactive: 146%
Cc1cccc(NC(=O)c2ccc3snnc3c2)c1	inactive: 108%
Cc1ccc2nc(-c3ccc(Cl)c(NC(=O)COc4cccc(C)c4C)c3)oc2c1	active: 48%
Cc1ccc2[nH]c(=O)c(CNCCCN(C)C)cc2c1	inactive: 83%
Cc1ccc(NC(=O)C2CCCN(c3nnc(-n4c(C)ccc4C)s3)C2)c(C)c1 (configuration not stated)	inactive: 100%
N#Cc1ccccc1Cn1c(=O)n(CCCC(=O)NCc2ccc3c(c2)OCO3)c(=O)c2sccc21	inactive: 146%
Cc1ccn2c(=O)cc(COc3ccc(NC(=O)COc4ccc(Cl)cc4)cc3)nc2c1	inactive: 95%
CCCN(CCC)C(=O)Cn1c(=O)n(-c2cccc(OC)c2)c(=O)c2c3c(sc21)CCCC3	inactive: 93%
CCCC(C(=O)NCc1cccc(Cl)c1)N1Cc2ccccc2C1=O (configuration not stated)	inactive: 102%
O=C(CCCCn1c(=O)c2ccccc2n(Cc2ccccc2Cl)c1=O)NCCc1ccccc1	inactive: 117%
Cc1onc2c1C(=O)CC(C)(C)C2	inactive: 73%
CCc1nnc(SCC(=O)Nc2ccccc2Cl)nc1CC	inactive: 80%
CC(C)COc1ccc(C(=O)NCC2(N3CCN(C)CC3)CCCCC2)cc1	inactive: 80%
CCc1ccc2ncc3c(-c4ccccc4)nn(-c4ccccc4)c3c2c1	active: 5%

SMILES	survival
COCCNC(=O)Cn1nc(C)c2c(C)n(-c3ccc(C)cc3)nc2c1=O	inactive: 135%
CCc1ccc(NCc2cc3cc4c(cc3n(CC(=O)Nc3cccc(OC)c3)c2=O)OCO4)cc1	inactive: 93%
Cc1cc(C)n2nc(C(=O)N/N=C/c3ccncc3)nc2n1	inactive: 76%
Cc1cc(NS(=O)(=O)c2ccc(NC(=O)c3ccccc3C)cc2)nc(C)n1	inactive: 93%
COc1cccc(NC(=O)CSc2nnc3scc(-c4ccc(Cl)cc4)n23)c1	inactive: 52%
Cc1ccc(C)c(NC(=O)CC2NCCNC2=O)c1 (configuration not stated)	inactive: 79%
CC1=C(C#N)C(NC(=O)c2ccccc2Cl)(C(F)(F)F)C(=O)N1 (configuration not stated)	inactive: 132%
CCc1ccc(NC(=O)c2sc3nc(C)c(Cl)c(C)c3c2NC(=O)c2ccccc2OC)cc1	inactive: 130%
CCCCSc1nnc(-c2ccc3[nH]c(C)c(C)c3c2)o1	inactive: 75%
COc1ccc(OC)c(NC(=O)C2=C(C)C(=O)OC23CCCCCC3)c1	inactive: 131%
Cc1ccc(S(=O)(=O)c2nnn3c2nc(N2CCN(c4ccccc4F)CC2)c2cc(Cl)ccc23)cc1C	inactive: 82%
COc1ccc(/C=C/C(=O)Nc2ccc3nc4c(c(Nc5ccccc5OC)c3c2)CCCC4)cc1	inactive: 65%
O=C(c1ccc2c(c1)N(Cc1cccc(F)c1)C(=O)c1ccccc1S2)N1CCOCC1	inactive: 86%
CC(=O)N1c2c(cc(Br)cc2S(=O)(=O)N2CCN(c3cc(C)ccc3C)CC2)CC1C (configuration not stated)	inactive: 78%
Cc1ccccc1CN1C(=O)c2ccccc2S(=O)c2ccc(C(=O)NC3CCC(C)CC3)cc21 (configuration not stated)	inactive: 101%
Cc1ccc(S(=O)(=O)c2nnn3c2nc(N2CCCC2)c2sccc23)cc1C	inactive: 48%
COc1ccc(CNc2nc3c(-c4cccc(C)c4)nnn3c3ccccc23)cc1	inactive: 85%
CCOc1ccc(NC(=O)c2cnc(N3CCCC3)nc2C)cc1	inactive: 98%
Cc1nn(CC(=O)N2CCC(C)CC2)c(=O)c2cc3sccc3n12	inactive: 90%
CCOc1ccc(CCNC(=O)c2cn(C)c3ccc(S(=O)(=O)N4CCCCCC4)cc3c2=O)cc1OCC	inactive: 61%
CC(C)c1ccc(NC(=O)Cn2cc(S(=O)(=O)N3CCN(c4ccccc4F)CC3)c3ccccc3c2=O)cc1	inactive: 92%
